This passage reports binding results from PMC9331078.

Protein sequences, listed by entry. Tags and fused reporters are not part of them. Lines headed by an entry give the natural chain unless they say otherwise; changes in a name come on top. Residues count along the entry.
UniProt Q06330: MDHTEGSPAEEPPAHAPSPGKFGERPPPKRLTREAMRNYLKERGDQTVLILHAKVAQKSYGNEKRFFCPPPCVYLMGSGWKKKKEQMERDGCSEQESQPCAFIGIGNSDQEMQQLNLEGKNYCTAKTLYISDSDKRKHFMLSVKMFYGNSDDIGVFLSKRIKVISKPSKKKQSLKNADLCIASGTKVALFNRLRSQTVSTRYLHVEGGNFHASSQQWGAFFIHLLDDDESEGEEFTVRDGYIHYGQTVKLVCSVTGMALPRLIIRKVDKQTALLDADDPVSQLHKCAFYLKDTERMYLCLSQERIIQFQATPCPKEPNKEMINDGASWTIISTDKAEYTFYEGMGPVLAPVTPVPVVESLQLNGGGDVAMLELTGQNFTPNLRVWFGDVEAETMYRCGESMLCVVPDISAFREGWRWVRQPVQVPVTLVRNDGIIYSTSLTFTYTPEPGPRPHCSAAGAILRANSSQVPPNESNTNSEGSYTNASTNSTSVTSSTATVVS
UniProt P26358: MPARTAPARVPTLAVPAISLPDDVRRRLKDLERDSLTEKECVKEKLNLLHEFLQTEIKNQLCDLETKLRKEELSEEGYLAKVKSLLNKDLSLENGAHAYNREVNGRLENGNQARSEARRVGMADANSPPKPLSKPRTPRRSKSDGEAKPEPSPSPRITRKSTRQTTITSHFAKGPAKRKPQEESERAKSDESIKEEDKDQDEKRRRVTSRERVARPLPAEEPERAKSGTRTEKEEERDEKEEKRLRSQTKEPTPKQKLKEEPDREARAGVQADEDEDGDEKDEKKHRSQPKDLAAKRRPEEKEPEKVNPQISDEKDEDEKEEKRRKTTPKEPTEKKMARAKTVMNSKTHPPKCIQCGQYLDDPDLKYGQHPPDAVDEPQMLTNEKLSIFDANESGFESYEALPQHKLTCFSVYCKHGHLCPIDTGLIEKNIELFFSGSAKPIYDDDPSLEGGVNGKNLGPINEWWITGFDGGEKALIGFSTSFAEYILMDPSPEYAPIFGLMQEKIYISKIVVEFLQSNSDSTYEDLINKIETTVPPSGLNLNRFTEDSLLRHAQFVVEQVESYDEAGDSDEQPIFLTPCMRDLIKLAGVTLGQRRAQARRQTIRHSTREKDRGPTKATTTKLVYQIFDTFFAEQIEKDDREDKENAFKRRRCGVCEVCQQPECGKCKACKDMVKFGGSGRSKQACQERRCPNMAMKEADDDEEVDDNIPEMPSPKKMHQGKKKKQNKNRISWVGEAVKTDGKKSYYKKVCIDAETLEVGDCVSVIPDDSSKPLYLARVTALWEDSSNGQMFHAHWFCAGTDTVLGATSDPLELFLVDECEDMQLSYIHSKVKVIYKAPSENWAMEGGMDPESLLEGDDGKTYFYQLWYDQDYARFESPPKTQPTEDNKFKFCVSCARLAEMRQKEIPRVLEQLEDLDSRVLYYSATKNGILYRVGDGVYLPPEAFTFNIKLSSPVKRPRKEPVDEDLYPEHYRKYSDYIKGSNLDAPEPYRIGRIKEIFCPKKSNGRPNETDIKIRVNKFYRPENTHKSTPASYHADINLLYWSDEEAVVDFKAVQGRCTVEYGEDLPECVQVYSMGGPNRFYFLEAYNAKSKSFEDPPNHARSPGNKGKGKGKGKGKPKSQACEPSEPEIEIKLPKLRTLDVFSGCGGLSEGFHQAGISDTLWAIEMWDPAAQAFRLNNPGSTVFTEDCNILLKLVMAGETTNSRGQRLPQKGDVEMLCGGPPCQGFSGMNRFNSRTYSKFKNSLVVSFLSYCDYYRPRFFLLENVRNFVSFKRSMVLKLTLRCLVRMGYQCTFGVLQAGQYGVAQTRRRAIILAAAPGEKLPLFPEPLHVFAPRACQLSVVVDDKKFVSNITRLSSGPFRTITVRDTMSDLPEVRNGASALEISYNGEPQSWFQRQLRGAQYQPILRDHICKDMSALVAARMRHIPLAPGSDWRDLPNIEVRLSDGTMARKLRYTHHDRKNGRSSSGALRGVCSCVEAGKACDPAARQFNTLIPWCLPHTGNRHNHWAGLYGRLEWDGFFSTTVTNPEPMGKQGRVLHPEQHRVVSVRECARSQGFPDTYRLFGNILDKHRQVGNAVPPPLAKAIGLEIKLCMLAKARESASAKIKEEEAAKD
UniProt O43734: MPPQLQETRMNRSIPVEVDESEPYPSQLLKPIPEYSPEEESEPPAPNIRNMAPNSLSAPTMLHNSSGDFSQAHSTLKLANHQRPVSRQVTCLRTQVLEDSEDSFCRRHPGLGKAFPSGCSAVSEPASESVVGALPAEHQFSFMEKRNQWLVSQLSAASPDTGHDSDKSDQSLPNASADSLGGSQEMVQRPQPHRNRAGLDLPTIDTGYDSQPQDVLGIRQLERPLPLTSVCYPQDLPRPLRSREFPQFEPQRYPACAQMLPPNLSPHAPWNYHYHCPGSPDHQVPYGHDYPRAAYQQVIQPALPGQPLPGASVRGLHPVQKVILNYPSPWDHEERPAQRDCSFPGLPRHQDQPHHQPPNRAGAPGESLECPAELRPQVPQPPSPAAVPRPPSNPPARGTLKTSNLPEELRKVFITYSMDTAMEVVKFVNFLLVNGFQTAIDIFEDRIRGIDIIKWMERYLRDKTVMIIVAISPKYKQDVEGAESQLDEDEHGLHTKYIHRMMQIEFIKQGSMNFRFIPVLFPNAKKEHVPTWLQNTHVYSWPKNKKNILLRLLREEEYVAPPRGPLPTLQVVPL
UniProt P46531: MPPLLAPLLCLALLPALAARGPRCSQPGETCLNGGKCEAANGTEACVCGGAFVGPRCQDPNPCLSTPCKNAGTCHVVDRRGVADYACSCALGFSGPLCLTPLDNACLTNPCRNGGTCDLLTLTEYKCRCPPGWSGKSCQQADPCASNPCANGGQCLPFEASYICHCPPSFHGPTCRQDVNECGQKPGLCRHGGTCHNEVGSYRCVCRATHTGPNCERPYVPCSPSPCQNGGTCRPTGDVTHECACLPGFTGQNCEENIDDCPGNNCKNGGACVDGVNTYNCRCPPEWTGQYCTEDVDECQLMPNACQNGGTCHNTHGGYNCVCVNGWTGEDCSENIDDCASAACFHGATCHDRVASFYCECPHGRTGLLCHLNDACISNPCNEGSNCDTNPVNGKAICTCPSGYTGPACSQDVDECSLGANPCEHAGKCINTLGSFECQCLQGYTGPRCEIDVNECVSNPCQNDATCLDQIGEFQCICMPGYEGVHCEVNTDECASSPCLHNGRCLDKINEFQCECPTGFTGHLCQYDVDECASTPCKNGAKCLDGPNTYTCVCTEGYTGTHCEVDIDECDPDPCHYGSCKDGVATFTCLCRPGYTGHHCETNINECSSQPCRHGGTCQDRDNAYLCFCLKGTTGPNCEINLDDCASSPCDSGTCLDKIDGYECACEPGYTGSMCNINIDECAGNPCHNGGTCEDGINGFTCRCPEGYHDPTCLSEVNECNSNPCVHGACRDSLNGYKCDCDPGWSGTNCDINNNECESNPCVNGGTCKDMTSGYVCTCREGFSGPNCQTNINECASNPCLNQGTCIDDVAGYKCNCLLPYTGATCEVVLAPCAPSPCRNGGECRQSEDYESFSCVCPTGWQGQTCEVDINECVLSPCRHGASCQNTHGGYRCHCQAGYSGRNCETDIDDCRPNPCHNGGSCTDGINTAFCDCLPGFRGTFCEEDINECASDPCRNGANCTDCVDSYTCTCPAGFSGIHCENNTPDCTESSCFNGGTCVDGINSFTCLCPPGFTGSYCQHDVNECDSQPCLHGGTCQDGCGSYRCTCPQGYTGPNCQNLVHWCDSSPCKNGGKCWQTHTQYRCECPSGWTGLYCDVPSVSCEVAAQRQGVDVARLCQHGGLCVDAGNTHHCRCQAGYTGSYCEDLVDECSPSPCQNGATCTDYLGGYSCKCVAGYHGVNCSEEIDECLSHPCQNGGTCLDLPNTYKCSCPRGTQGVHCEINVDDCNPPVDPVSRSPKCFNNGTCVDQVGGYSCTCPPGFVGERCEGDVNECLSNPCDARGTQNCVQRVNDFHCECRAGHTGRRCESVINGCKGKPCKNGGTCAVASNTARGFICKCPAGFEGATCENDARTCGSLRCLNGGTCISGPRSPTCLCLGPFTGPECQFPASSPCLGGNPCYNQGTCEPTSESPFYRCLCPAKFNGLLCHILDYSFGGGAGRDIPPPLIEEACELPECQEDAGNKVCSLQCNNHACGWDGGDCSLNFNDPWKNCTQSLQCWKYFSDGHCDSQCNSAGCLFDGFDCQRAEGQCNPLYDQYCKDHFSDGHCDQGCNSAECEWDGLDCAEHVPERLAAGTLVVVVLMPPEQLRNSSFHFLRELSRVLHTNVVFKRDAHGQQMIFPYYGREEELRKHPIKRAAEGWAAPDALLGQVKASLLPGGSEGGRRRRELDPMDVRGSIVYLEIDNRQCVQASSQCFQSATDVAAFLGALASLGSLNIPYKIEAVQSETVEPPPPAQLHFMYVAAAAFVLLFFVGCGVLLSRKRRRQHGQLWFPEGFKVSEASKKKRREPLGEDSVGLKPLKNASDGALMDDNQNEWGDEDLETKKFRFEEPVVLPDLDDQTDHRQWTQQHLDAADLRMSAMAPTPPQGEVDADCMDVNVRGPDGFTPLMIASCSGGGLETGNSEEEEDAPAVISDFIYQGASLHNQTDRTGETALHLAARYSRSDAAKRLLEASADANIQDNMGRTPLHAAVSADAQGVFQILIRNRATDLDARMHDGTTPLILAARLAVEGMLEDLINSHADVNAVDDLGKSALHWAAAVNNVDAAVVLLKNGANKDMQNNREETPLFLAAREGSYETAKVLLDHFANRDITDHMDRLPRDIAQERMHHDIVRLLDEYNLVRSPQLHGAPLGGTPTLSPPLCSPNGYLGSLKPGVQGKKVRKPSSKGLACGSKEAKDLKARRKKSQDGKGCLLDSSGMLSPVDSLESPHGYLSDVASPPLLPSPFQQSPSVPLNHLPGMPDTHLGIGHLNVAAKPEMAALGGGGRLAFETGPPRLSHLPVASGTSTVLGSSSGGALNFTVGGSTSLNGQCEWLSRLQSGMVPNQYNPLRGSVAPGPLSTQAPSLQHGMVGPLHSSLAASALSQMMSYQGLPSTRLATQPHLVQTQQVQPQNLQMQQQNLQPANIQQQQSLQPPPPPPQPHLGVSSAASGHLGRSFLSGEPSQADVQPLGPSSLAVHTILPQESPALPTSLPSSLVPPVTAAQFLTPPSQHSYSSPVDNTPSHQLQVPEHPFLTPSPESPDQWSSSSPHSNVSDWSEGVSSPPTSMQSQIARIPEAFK
HA-NOTCH1: residues 19-2555 of P46531
UniProt Q92831: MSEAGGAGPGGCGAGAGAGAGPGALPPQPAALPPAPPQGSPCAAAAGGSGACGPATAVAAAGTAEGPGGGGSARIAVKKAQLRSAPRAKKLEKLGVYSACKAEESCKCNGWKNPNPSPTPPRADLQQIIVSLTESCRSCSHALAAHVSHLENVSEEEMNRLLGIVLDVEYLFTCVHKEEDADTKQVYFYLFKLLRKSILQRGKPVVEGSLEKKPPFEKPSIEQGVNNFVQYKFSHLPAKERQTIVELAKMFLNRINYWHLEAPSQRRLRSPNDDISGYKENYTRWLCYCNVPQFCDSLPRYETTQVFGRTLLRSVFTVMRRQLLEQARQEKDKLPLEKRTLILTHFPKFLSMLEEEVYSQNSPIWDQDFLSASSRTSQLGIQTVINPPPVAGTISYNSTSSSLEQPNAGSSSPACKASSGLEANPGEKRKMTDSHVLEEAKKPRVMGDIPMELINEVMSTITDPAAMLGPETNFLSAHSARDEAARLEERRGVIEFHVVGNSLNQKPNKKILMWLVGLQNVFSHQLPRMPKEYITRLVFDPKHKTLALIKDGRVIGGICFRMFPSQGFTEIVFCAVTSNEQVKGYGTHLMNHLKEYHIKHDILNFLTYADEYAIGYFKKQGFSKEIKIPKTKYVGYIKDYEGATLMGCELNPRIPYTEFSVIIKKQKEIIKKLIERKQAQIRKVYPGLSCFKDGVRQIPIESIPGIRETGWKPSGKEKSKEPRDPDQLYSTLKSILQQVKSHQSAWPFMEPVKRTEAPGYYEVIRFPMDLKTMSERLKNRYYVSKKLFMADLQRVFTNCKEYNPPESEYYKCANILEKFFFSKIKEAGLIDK

Results are given in words; binding and its absence hold for the method and conditions named. Binding seen in cells or lysates may run through a third protein. Some results given as binding are weak or reduced against the parent protein; the word gives no strength.

The target of assay [1] is RBPJ (human (endogenous in UOK109 or 786-O)) (UniProt Q06330). As to the kind of experiment: co-IP; UOK109 or 786-O cells transfected with indicated lentivirus (TRAF3IP2 overexpression); IP with anti-Flag antibody or anti-RBPJ antibody; western blot. (In general: In western blotting, separated proteins are transferred to a membrane and probed.)
Assay [2] deals with Flag-DNMT1 (UniProt P26358). In words: co-IP; 786-O cells transfected with Flag-HNRNPK/Flag-DNMT1; IP with anti-Flag antibody or normal rabbit IgG; western blot.
Assay [3] has as its target Flag-TRAF3IP2 (UniProt O43734). As to the kind of experiment: co-IP; 786-O cells transfected with Flag-TRAF3IP2 or HA-NOTCH1; IP with anti-Flag antibody, anti-HA antibody or normal rabbit IgG; western blot.
Assay [4] addresses TRAF3IP2 (TRAF3 interacting protein 2) (human (endogenous in UOK109 and 786-O)) (UniProt O43734). As to the kind of experiment: co-IP; UOK109 lysate, endogenous proteins; CoIP and reverse CoIP with anti-TRAF3IP2 antibody, anti-NOTCH1 antibody or normal rabbit IgG; western blot.
Assay [5] addresses HA-NOTCH1 (UniProt P46531). As to the kind of experiment: co-IP; 786-O cells transfected with Flag-TRAF3IP2 or HA-NOTCH1; IP with anti-Flag antibody, anti-HA antibody or normal rabbit IgG; western blot.
The target of assay [6] is Flag-TRAF3IP2 (UniProt O43734). As to the kind of experiment: co-IP; UOK109 cells transfected with Flag-TRAF3IP2, HA-NICD1 and V5-NECD1; IP with anti-Flag antibody; western blot.

On to EP300 (from UniProt Q09472 1-2414), for which, in assay [1], the binding result is reported as “binds”.

“Flag-TRAF3IP2 (from UniProt O43734 1-574)”: the binding result in assay [1] is given as “binds”. Take “HNRNPK (heterogeneous nuclear ribonucleoprotein K) (from UniProt P61978 1-463)”: the binding result in assay [2] was “binds”.

In the case of KAT2B (from UniProt Q92831 1-832), the binding result in assay [1] is on record as “binds”. With “NOTCH1 (from UniProt P46531 19-2555) (receptor)”, the binding entry in assay [3] and in assay [4] was “binds” throughout. With “TRAF3IP2 (TRAF3 interacting protein 2) (from UniProt O43734 1-574)”, the binding entry in assay [5] is “binds”. As to “V5-NECD1 (extracellular domain of NOTCH1) (from UniProt P46531 19-1735) (domain or fragment)”, the binding result in assay [6] is reported as “no binding”.
